Data: the supplement of paper PMC6089552
The whole screen tested about 3,200 compounds, of which about 300 (9.4%) showed activity. The entries are a selection whose mix differs from that of the whole data set.

Test system: A673/TR/shEF
Assay: cell viability (LOESS-normalised, relative to median of negative controls) (log2 ratio); higher = more viable cells (less compound effect), active = hit call of the paper (over 3 MAD below the median)
Conditions: treatment time: 72 h
In short: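 A673/TR/shEF Ewing sarcoma cells (1,500 per well, 384-well plates) were grown with or without doxycycline to induce EWS-FLI1 shRNA knockdown, starting 24 h before compounds. Library compounds at two or more concentrations, with DMSO controls, were added for three days. Cell viability was read by CellTiter-Glo luminescence on an Envision reader, then LOESS-corrected per plate, divided by the median of negative controls and log2-transformed. Hits were wells at least three median absolute deviations from the median of all screened wells.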

[1] = 25 µM, library screen: screen3, EWS-FLI1 expression: high (no doxycycline)
[2] = 0.25 µM, library screen: screen2, EWS-FLI1 expression: high (no doxycycline)
[3] = 0.25 µM, library screen: screen2, EWS-FLI1 expression: low (doxycycline-induced shRNA knockdown)
[4] = 2.5 µM, library screen: screen2, EWS-FLI1 expression: high (no doxycycline)
[5] = 2.5 µM, library screen: screen2, EWS-FLI1 expression: low (doxycycline-induced shRNA knockdown)
[6] = 0.25 µM, library screen: screen1, EWS-FLI1 expression: high (no doxycycline)
[7] = 0.25 µM, library screen: screen1, EWS-FLI1 expression: low (doxycycline-induced shRNA knockdown)
[8] = 2.5 µM, library screen: screen1, EWS-FLI1 expression: high (no doxycycline)
[9] = 2.5 µM, library screen: screen1, EWS-FLI1 expression: low (doxycycline-induced shRNA knockdown)
[10] = 0.103 µM, library screen: screen3, EWS-FLI1 expression: high (no doxycycline)
[11] = 0.103 µM, library screen: screen3, EWS-FLI1 expression: low (doxycycline-induced shRNA knockdown)
[12] = 0.308 µM, library screen: screen3, EWS-FLI1 expression: high (no doxycycline)
[13] = 0.308 µM, library screen: screen3, EWS-FLI1 expression: low (doxycycline-induced shRNA knockdown)
[14] = 0.926 µM, library screen: screen3, EWS-FLI1 expression: high (no doxycycline)
[15] = 0.926 µM, library screen: screen3, EWS-FLI1 expression: low (doxycycline-induced shRNA knockdown)
[16] = 2.8 µM, library screen: screen3, EWS-FLI1 expression: high (no doxycycline)
[17] = 2.8 µM, library screen: screen3, EWS-FLI1 expression: low (doxycycline-induced shRNA knockdown)
[18] = 8.3 µM, library screen: screen3, EWS-FLI1 expression: high (no doxycycline)
[19] = 8.3 µM, library screen: screen3, EWS-FLI1 expression: low (doxycycline-induced shRNA knockdown)
[20] = 25 µM, library screen: screen3, EWS-FLI1 expression: low (doxycycline-induced shRNA knockdown)

Measured: cell viability (log2)

Oc1ccc([C@@H]2Oc3ccc(O)cc3[C@@H]3CCC[C@@H]32)cc1
active: [1] -0.181

O=c1onc2n1-c1cc(Br)ccc1OC2
inactive: [2] 0.108 | [3] 0.0407 | [4] 0.0924 | [5] 0.198

CNCCC=C1c2ccccc2CCc2ccccc21
inactive: [6] 0.0497 | [7] 0.118 | [2] 0.2 | [3] 0.134 | [8] 0.067 | [9] 0.117 | [4] 0.169 | [5] 0.0842

C[C@]12CC[C@@H](O)C[C@H]1CC[C@@H]1[C@@H]2C(=O)C[C@@]2(C)[C@H]1CC[C@]2(O)C(=O)CO
inactive: [6] 0.162 | [7] 0.116 | [8] 0.185 | [9] 0.0107

C[C@H]1[C@H](NC(=O)/C(=N\OC(C)(C)C(=O)O)c2csc(N)n2)C(=O)N1S(=O)(=O)O
inactive: [10] -0.0125 | [11] 0.0891 | [12] 0.0136 | [13] 0.00917 | [14] 0.0649 | [15] 0.0584 | [16] 0.02 | [17] 0.0799 | [18] 0.0905 | [19] 0.112 | [1] 0.0642 | [20] 0.0641

CCc1c2c(nc3ccc(OC(=O)N4CCC(N5CCCCC5)CC4)cc13)-c1cc3c(c(=O)n1C2)COC(=O)[C@]3(O)CC
active: [14] -0.241 | [16] -1.31 | [17] -0.173 | [18] -1.95 | [19] -0.414 | [1] -2.57 | [20] -0.647
inactive: [10] 0.00275 | [11] 0.0626 | [12] -0.0633 | [13] 0.00509 | [15] 0.026

CC(C)C[C@@H]1NC(=O)[C@H](CCCN)NC(=O)[C@H](C(C)C)NC(=O)[C@@H]2CCCN2C(=O)[C@@H](Cc2ccccc2)NC(=O)[C@H](CC(C)C)NC(=O)[C@H](CCCN)NC(=O)[C@H](C(C)C)NC(=O)[C@@H]2CCCN2C(=O)[C@@H](Cc2ccccc2)NC1=O
active: [6] -1.96 | [7] -0.176 | [8] -3.79

CCOc1ccc(C(=O)Nc2cccc(OC)c2)cc1Cl
inactive: [6] 0.0358 | [7] 0.0408 | [8] 0.151 | [9] 0.0428

Cc1ccc2c(c1)CC[C@H]1CC(=O)CC[C@]21C
inactive: [6] 0.166 | [7] 0.172 | [8] 0.0746 | [9] 0.103

CS(=O)(=O)c1ccc2nc(NC(=O)c3cccc(Cl)c3)sc2c1
active: [6] -0.0938
inactive: [7] 0.0657 | [8] 0.0503 | [9] 0.0275

CC(=O)Nc1ccc(S(=O)(=O)Nc2ccc([N+](=O)[O-])cc2)cc1
inactive: [6] 0.104 | [7] 0.0989 | [8] 0.0879 | [9] 0.134

Cc1ccc(C(=O)Nc2ccc(S(=O)(=O)O)c3cc(S(=O)(=O)O)cc(S(=O)(=O)O)c23)cc1NC(=O)c1cccc(NC(=O)Nc2cccc(C(=O)Nc3cc(C(=O)Nc4ccc(S(=O)(=O)O)c5cc(S(=O)(=O)O)cc(S(=O)(=O)O)c45)ccc3C)c2)c1
active: [2] -2.98 | [3] -2.91 | [4] -3.46 | [5] -3.2
inactive: [6] 0.152 | [7] 0.0138 | [8] 0.0749 | [9] 0.0704

CCc1cc(C(N)=S)ccn1
inactive: [10] 0.0944 | [11] 0.0964 | [6] 0.139 | [7] 0.00592 | [12] 0.102 | [13] 0.162 | [14] 0.0904 | [15] 0.0766 | [8] 0.205 | [9] -0.0465 | [16] 0.172 | [17] 0.0977 | [18] 0.102 | [19] 0.0932 | [1] 0.092 | [20] 0.103

COCc1cc(O)c(O)c(O)c1-c1c(COC)cc(O)c(O)c1O
active: 25 µM, library screen: screen1, EWS-FLI1 expression: high (no doxycycline) -4.25 | 25 µM, library screen: screen1, EWS-FLI1 expression: low (doxycycline-induced shRNA knockdown) -2.42

Cc1ccc(C(C)C)cc2c(C)ccc1-2
inactive: [6] 0.0556 | [7] -0.0467 | [8] 0.0686 | [9] 0.0228

CCOc1cc2ncc(C#N)c(Nc3ccc(OCc4ccccn4)c(Cl)c3)c2cc1NC(=O)/C=C/CN(C)C
active: [18] -0.204 | [19] -0.529
inactive: [10] 0.0468 | [11] 0.0085 | [12] -0.038 | [13] -0.0155 | [14] -0.0139 | [15] -0.00326 | [16] -0.0436 | [17] -0.282 | [1] -0.035 | [20] -0.415

CC12CC[C@](C)(C(=O)O)CC1C1=CC(=O)[C@@H]3C4(C)CC[C@H](OC(=O)CCC(=O)O)C(C)(C)[C@@H]4CCC3(C)[C@]1(C)CC2 (some centres not stated)
inactive: [6] 0.0741 | [7] -0.061 | [8] 0.0857 | [9] -0.0474

Cc1cn([C@@H]2C[C@@H](O)[C@H](CO)O2)c(=O)[nH]c1=O
inactive: [10] 0.207 | [11] 0.0457 | [12] 0.0611 | [13] 0.118 | [14] 0.128 | [15] 0.0817 | [16] 0.203 | [17] 0.115 | [18] 0.177 | [19] 0.101 | [1] 0.139 | [20] 0.167

NC(=O)c1ncn([C@@H]2O[C@H](CO)[C@@H](O)[C@H]2O)c1O
inactive: [6] 0.115 | [7] 0.116 | [2] 0.21 | [3] 0.141 | [8] 0.0737 | [9] 0.176 | [4] 0.0545 | [5] 0.0404

FC(F)(F)c1ccc(/C=C/c2nc(COc3ccc(CCCCn4ccnn4)cc3)co2)cc1
inactive: [11] -0.0943
active: [10] -0.325 | [12] -0.568 | [13] -0.12 | [14] -0.774 | [15] -0.153 | [16] -1.45 | [17] -0.118 | [18] -1.63 | [19] -0.193 | [1] -1.47 | [20] -0.184

COc1cc(O)c(C(C)=O)c(OC)c1
inactive: [6] 0.0973 | [7] 0.0966 | [8] 0.174 | [9] 0.0819
